Laboratory results: PubChem BioAssay AID1508649 (National Center for Advancing Translational Sciences (NCATS), 2021)
About 830 (1.9%) of roughly 43,000 compounds were called active. This list was built around the results that the source calls inconclusive (neither active nor inactive); the mix of calls is not that of the screen. How the source made its calls: active means clear falling dose curves in both reporters; inconclusive means both reporters move, but less clearly or upward; inactive means either reporter flat; the % is the NLuc reporter signal. No potency is given beside an inconclusive call; the fits are too rough.

test: Cell-based coincidence reporter assay to measure PMP22 gene transcription in S16 Pmp22-F2sN cells - Primary screen; details: S16 Pmp22-F2sN Schwann cells (luciferase reporters placed in the Pmp22 gene), FLuc/NLuc coincidence luminescence, 24 h; measured here: NLuc reporter readout, at 57.5 µM (top of the series); activity change, negative = inhibition: at the top concentration
Summary of the method: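 S16(c9) Schwann cells with FLuc/NLuc coincidence reporter in the Pmp22 3' UTR; compounds pin-transferred, 24 h at 37C. Dual-luciferase read: FLuc first, then NLuc after Stop&Glo, each 10 min at room temperature.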
On the % scale 0 is the no-effect control and ±100 the full control effect; potency means the concentration at half of the fitted maximal effect; tags describe the fitted curve by direction and shape.

Compound | activity change, negative = inhibition | Potency
COc1ccc(CNC(=O)Nc2ccc3c(c2)N(C)C(=O)c2ccccc2S3)cc1OC | inactive: 7.03% | 
Cc1ccc(NC(=O)Cn2c(=O)n(Cc3nc(-c4ccccc4)no3)c(=O)c3ccccc32)cc1C |  | inconclusive [phenotype inactive, single point]
Cc1cccc(NC(=O)COc2ccc(-c3nn(C)c(=O)c4ccccc34)cc2)c1 |  | inconclusive [phenotype inactive, single point]
COc1ccc(NC(=O)CSc2nnc(NC(=O)NC3CCCCC3)s2)cc1OC | inactive: -28.3% | 
CCc1ccc(S(=O)(=O)c2cn(Cc3ccccc3F)c3cc(OC)c(OC)cc3c2=O)cc1 |  | active: 14.2 µM
Cn1cc(S(=O)(=O)N2CCCCCC2)cc1C(=O)N1CCN(c2ccccc2F)CC1 |  | inconclusive [phenotype inactive, partial curve, poor fit]
Cc1ccc(NC(=O)C2CCCN(C(=O)c3cnn(-c4ccccc4)c3-n3cccc3)C2)cc1 (stereo not given) |  | inconclusive [phenotype inactive, single point]
CCCNC(=O)Cn1nc(-c2ccc(C)c(C)c2)c2cnc3ccc(OC)cc3c21 |  | inconclusive [phenotype inactive, single point]
O=C(Nc1ccc(Oc2ccccc2)cc1)c1ccc(F)c(S(=O)(=O)N2CCN(c3ccccc3F)CC2)c1 | inactive: -0.992% | 
COc1ccc(C(=O)NCc2nc(-c3cccc(C)c3)no2)cc1OC |  | inconclusive [phenotype inactive, single point]
Cc1ccc(Cn2cc(CCC(=O)NCC(C)c3ccccc3)c3ccccc32)cc1 (stereo not given) |  | inconclusive [phenotype inactive, single point]
CCCN1CCN(CCCNC(=O)c2cc3c(s2)-c2ccccc2OC3)CC1 |  | inconclusive [phenotype inactive, single point]
Cc1coc2c(C)c3oc(=O)c(CCC(=O)N4CCCCC4)c(C)c3cc12 |  | inconclusive [phenotype inactive, single point]
CCOC(=O)c1ccccc1NC(=O)Cn1c(=O)n(-c2ccc(CC)cc2)c(=O)c2c(C)c(C(=O)N(C)C)sc21 |  | inconclusive [phenotype inactive, single point]
CCn1cc2nc(SCc3cccc(C)c3)n(CCc3ccccc3)c(=O)c2n1 |  | inconclusive [phenotype inactive, single point]
Cc1cccc(-c2noc(-c3ccc(NCc4cccnc4)c([N+](=O)[O-])c3)n2)c1 | inactive: -87.5% | 
COc1ccc(C(=O)Nc2ccc3oc(-c4cc(Cl)ccc4Cl)nc3c2)cc1Br |  | inconclusive [phenotype inactive, partial curve]
COc1ccc(NC(=O)CN2C(=O)C(c3ccc(C)cc3)=NC23CCCCCC3)cc1Cl |  | inconclusive [phenotype inactive, single point]
Cc1ccc(Cl)cc1NC(=O)CSCc1cnn(-c2ccccc2)c1-n1cccc1 |  | inconclusive [phenotype inactive, single point]
CCC(C)NC(=O)CSCc1nc(-c2ccc(C)cc2)oc1C (stereo not given) |  | inconclusive [phenotype inactive, single point]
O=C(Cn1c(=O)n(-c2ccccc2)c(=O)c2ccc(C(=O)NCc3ccc4c(c3)OCO4)cc21)Nc1ccc(F)c(Cl)c1 |  | inconclusive [phenotype inactive, single point]
Cc1ccc(S(=O)(=O)Cc2ccc(C(=O)N3CCN(c4cccc(Cl)c4)CC3)o2)cc1 |  | active: 15 µM
Cc1ccccc1OCC(=O)Nc1cccc(C(=O)OCc2cc(=O)n3c(C)csc3n2)c1 |  | inconclusive [phenotype inactive, single point]
CCc1ccc(CNC(=O)Cn2nc(C)n3c(cc4cc(C)ccc43)c2=O)cc1 | inactive: -3.52% | 
CCc1ccc(NC(=O)CN2C(=O)C(c3ccc(C)cc3)=NC23CCCCC3)cc1 |  | inconclusive [phenotype inactive, single point]
CCOc1cccc2c1N[C@@H](c1ccc(C(=O)O)cc1)[C@H]1CC=C[C@@H]21 |  | inconclusive [phenotype inactive, single point]
COc1ccc(NC(=O)c2c(NC(=O)COc3ccccc3)sc3c2CCC(C(C)(C)C)C3)cc1 (stereo not given) |  | inconclusive [phenotype inactive, partial curve]
Cc1ccc(CN(Cc2ccco2)C(=O)c2ccc(OCC(C)C)cc2)cc1 |  | inconclusive [phenotype inactive, partial curve, poor fit]

Compound | activity change, negative = inhibition | Potency
CCOC(=O)c1cc(-c2ccc(F)cc2)n(CC(=O)NC2CCCCCC2)c1C |  | inconclusive [phenotype inactive, single point]
CCOC(=O)c1c(-c2ccccc2)oc2ccc(N(C(C)=O)S(=O)(=O)c3ccc(CC)cc3)cc12 |  | inconclusive [phenotype inactive, partial curve, poor fit]
CCOc1ccccc1NC(=O)Cn1c(=O)ccc2cc(S(=O)(=O)N3CCCC3)ccc21 |  | inconclusive [phenotype inactive, single point]
CCOc1ccc(N2CC(NC(=O)c3ccc(S(=O)(=O)N4CCCCC4)cc3)CC2=O)cc1 (stereo not given) |  | inconclusive [phenotype inactive, single point]
COc1ccc(S(=O)(=O)N2CCN(Cc3nc4ccc(C)cc4o3)CC2)cc1Cl |  | inconclusive [phenotype inactive, single point]
COc1ccccc1Nc1nn2c(=O)c3ccc(C(=O)N4CCCC(C)C4)cc3nc2s1 (stereo not given) |  | inconclusive [phenotype inactive, single point]
COc1ccc(OC)c(C2CC(=O)c3c([nH]c(C(=O)OCc4ccc(C)cc4)c3C)C2)c1 (stereo not given) | inactive: -15.6% | 
Cc1ccccc1OCCn1cc(C(=O)c2ccco2)c2ccccc21 |  | inconclusive [phenotype inactive, single point]
Cc1ccc(Cn2c(=O)n(-c3cccc(C(F)(F)F)c3)c(=O)c3c(C)c(C)sc32)c(C)c1 |  | inconclusive [phenotype inactive, single point]
COc1ccc(-c2cc3nc(C)c(CCC(=O)NCCc4ccc(Cl)cc4)c(C)n3n2)c(OC)c1 |  | inconclusive [phenotype inactive, single point]
CCOC(=O)C1CCCN(c2c(C(=O)c3ccccc3)cnc3ccc(F)cc23)C1 (stereo not given) | inactive: -14.2% | 
COc1ccc(C(=O)Nc2ccc3nc4c(c(Nc5ccccc5OC)c3c2)CCCC4)c(OC)c1 |  | inconclusive [phenotype inactive, partial curve]
Cc1cccc2c1-c1sc(C(=O)NCCCN3CCN(c4ccccc4F)CC3)cc1CO2 |  | inconclusive [phenotype inactive, single point]
Cc1ccc(-c2c(C(=O)N3CCN(c4ccc(F)cc4)CC3)oc(=O)c3ccccc23)cc1 |  | inconclusive [phenotype inactive, single point]
CCOc1ccc(CN2CCN(Cc3ccc4c(c3)c3ccccc3n4CC)CC2)cc1 |  | inconclusive [phenotype inactive, single point]
CCOc1ccc(C2C(C(=O)Nc3ccccc3C)=C(C)Nc3nnnn32)cc1 (stereo not given) |  | inconclusive [phenotype inactive, single point]
CCOc1ccccc1CNC(=O)c1cnc2sc(N(CC)CC)nn2c1=O |  | inconclusive [phenotype inactive, partial curve]
COc1ccc(-n2ccnc(NCc3ccccc3Cl)c2=O)cc1OC | inactive: 37.3% | 
CCOC(=O)c1cc(-c2ccccc2)n(CCCC(=O)Nc2ccccc2C)c1C |  | inconclusive [phenotype inactive, single point]
CCCCC1CCC(C(=O)N2CC(=O)Nc3ccc(Br)cc3C2c2ccc(F)cc2)CC1 (stereo not given) |  | inconclusive [phenotype inactive, single point]
Cc1ccc(N(CC(=O)N2CCN(c3cc(C)ccc3C)CC2)S(=O)(=O)c2c(C)nn(C)c2C)cc1 |  | inconclusive [phenotype inactive, single point]
CCOc1ccc(N(C)C(=O)c2oc(=O)c3ccccc3c2-c2ccccc2)cc1 |  | inconclusive [phenotype inactive, partial curve, poor fit]
CC(C)c1ccc(S(=O)(=O)N2CCN(Cc3cccc(F)c3)CC2)cc1 |  | inconclusive [phenotype inactive, single point]
O=C(c1ccc2c(c1)N(Cc1ccc(Cl)cc1)C(=O)c1ccccc1S2(=O)=O)N1CCCC1 |  | inconclusive [phenotype inactive, single point]
CC(=O)Nc1cccc(-c2nc(-c3ccccc3)no2)c1 | inactive: -24.2% | 
O=S(=O)(c1ccc(Cl)cc1)c1nnn2c1nc(NC1CCCC1)c1sccc12 |  | inconclusive [phenotype inactive, partial curve]
COC(=O)c1ccc2c(=O)n(CCCCCC(=O)NCCc3ccccc3)c(=O)[nH]c2c1 |  | inconclusive [phenotype inactive, single point]
